Experimental data taken from PubChem BioAssay AID2427 (National Center for Advancing Translational Sciences (NCATS), 2010).
The other results are listed elsewhere or left out. Shown are side measurements of this screen, not its main read-out; they come without a call. Compounds called inactive in the main read-out are mostly missing here.

Molecular target: 15-hydroxyprostaglandin dehydrogenase [NAD(+)] (Homo sapiens) (UniProt P15428)
Assay: Thermal Shift Assay for Inhibitors of HPGD (15-Hydroxyprostaglandin Dehydrogenase)
Details: Recombinant HPGD thermal shift, SYPRO orange DSF, measured here: delta Tm with NADH cofactor, at 250 µM, stronger effect = higher value
Procedure: Assay Overview: Human 15-Hydroxyprostaglandin dehydrogenase (HPGD) catalyzes the inactivation of prostaglandin E2, and plays a major role in cancer biology by antagonizing the oncogenic potential of cyclooxygenase type 2 (COX2). Studies to assess the stability of human 15-PGDH in presence of compounds was performed as described (Niesen et al., 2007) with variations. References 1. Myung SJ, Rerko RM, Yan M, Platzer P, Guda K, Dotson A, Lawrence E, Dannenberg AJ, Lovgren AK, Luo G, Pretlow TP, Newman RA, Willis J, Dawson D, Markowitz SD. 15-Hydroxyprostaglandin dehydrogenase is an in vivo suppressor of colon tumorigenesis. Proc Natl Acad Sci U S A. 2006 Aug 8;103(32):12098-102. 2. Yan M, Rerko RM, Platzer P, Dawson D, Willis J, Tong M, Lawrence E, Lutterbaugh J, Lu S, Willson JK, Luo G, Hensold J, Tai HH, Wilson K, Markowitz SD. 15-Hydroxyprostaglandin dehydrogenase, a COX-2 oncogene antagonist, is a TGF-beta-induced suppressor of human gastrointestinal cancers. Proc Natl Acad Sci U S A. 2004 Dec 14;101(50):17468-73. 3. […]
HPGD was diluted to a final assay concentration of 1 uM in 100 mM Tris buffer, pH 8.0, containing 0.01% Tween-20 and 1:1000 SYPRO orange dye. […] Heat denaturation curves were recorded using a RT-PCR instrument (Mx3005p, Agilent) applying a temperature gradient of 2 degree C/min. […]

Sequence of UniProt P15428 (P15428 whole entry, looked up): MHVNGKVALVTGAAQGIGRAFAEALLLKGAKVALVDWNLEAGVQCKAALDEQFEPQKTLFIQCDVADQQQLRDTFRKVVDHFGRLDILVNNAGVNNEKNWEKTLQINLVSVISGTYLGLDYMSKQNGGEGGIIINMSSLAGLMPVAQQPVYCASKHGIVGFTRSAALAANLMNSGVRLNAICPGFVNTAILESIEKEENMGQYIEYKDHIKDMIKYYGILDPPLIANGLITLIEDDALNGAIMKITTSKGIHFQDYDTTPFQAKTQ

Molecule `CN[C@@H](C)[C@H](O)c1ccccc1` has a thermal shift (delta Tm) of -0.1 C.
`CCN(CC)C(=O)c1ccc(NC(=O)c2cc(-n3cnnc3)ccc2Cl)cc1` gave a thermal shift (delta Tm) of 2.2 C.
